{"source": "the supplement of paper PMC8728848", "assay_in_all_cases": "glycan array binding signal (z-score within array); higher = stronger binding", "conditions_in_all_cases": "glycan notation: IUPAC condensed, linker removed; mutation: R85A", "key": {"[1]": {"target": "Neu5Ac(a2-3)Gal(b1-3)GlcNAc(b1-3)Gal(b1-3)GlcNAc", "how_it_was_run": "(§1)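 The binding signal is a Z-score computed within each array and averaged over linkers. Arrays of the same protein sequence at different concentrations or buffers were also averaged together. Data originate from 3228 arrays in the Consortium for Functional Glycomics database, kept only where the protein sequence was available.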"}, "[2]": {"target": "Neu5Ac(a2-3)Gal(b1-3)GlcNAc(b1-3)Gal(b1-4)GlcNAc", "how_it_was_run": "as §1"}, "[3]": {"target": "Neu5Ac(a2-3)Gal(b1-3)GlcNAc(b1-3)GalNAc", "how_it_was_run": "as §1"}, "[4]": {"target": "Neu5Ac(a2-3)Gal(b1-3)GlcNAc6S", "how_it_was_run": "as §1"}, "[5]": {"target": "Neu5Ac(a2-3)Gal(b1-3)[Fuc(a1-4)]GlcNAc", "how_it_was_run": "as §1"}, "[6]": {"target": "Neu5Ac(a2-3)Gal(b1-3)[Fuc(a1-4)]GlcNAc(b1-3)Gal(b1-3)[Fuc(a1-4)]GlcNAc", "how_it_was_run": "as §1"}, "[7]": {"target": "Neu5Ac(a2-3)Gal(b1-3)[Fuc(a1-4)]GlcNAc(b1-3)Gal(b1-4)[Fuc(a1-3)]GlcNAc", "how_it_was_run": "as §1"}, "[8]": {"target": "Neu5Ac(a2-3)Gal(b1-3)[Neu5Ac(a2-3)Gal(b1-4)]GlcNAc", "how_it_was_run": "as §1"}, "[9]": {"target": "Neu5Ac(a2-3)Gal(b1-3)[Neu5Ac(a2-6)]GalNAc", "how_it_was_run": "as §1"}, "Neu5Ac(a2-3)Gal(b1-4)Glc": {"target": "Neu5Ac(a2-3)Gal(b1-4)Glc", "how_it_was_run": "as §1"}, "[10]": {"target": "Neu5Ac(a2-3)Gal(b1-4)GlcNAc", "how_it_was_run": "as §1"}, "[11]": {"target": "Neu5Ac(a2-3)Gal(b1-4)GlcNAc(b1-2)Man(a1-3)[GlcNAc(b1-2)Man(b1-4)GlcNAc(b1-2)Man(a1-6)]Man(b1-4)GlcNAc(b1-4)GlcNAc", "how_it_was_run": "as §1"}, "[12]": {"target": "Neu5Ac(a2-3)Gal(b1-4)GlcNAc(b1-2)Man(a1-3)[Neu5Ac(a2-6)Gal(b1-4)GlcNAc(b1-2)Man(a1-6)]Man(b1-4)GlcNAc(b1-4)GlcNAc", "how_it_was_run": "as §1"}, "[13]": {"target": "Neu5Ac(a2-3)Gal(b1-4)GlcNAc(b1-3)Gal(b1-3)GlcNAc", "how_it_was_run": "as §1"}, "[14]": {"target": "Neu5Ac(a2-3)Gal(b1-4)GlcNAc(b1-3)Gal(b1-4)GlcNAc", "how_it_was_run": "as §1"}, "[15]": {"target": "Neu5Ac(a2-3)Gal(b1-4)GlcNAc(b1-3)Gal(b1-4)GlcNAc(b1-3)Gal(b1-4)GlcNAc", "how_it_was_run": "as §1"}, "[16]": {"target": "Neu5Ac(a2-3)Gal(b1-4)GlcNAc(b1-3)Gal(b1-4)[Fuc(a1-3)]GlcNAc", "how_it_was_run": "as §1"}, "[17]": {"target": "Neu5Ac(a2-3)Gal(b1-4)GlcNAc(b1-3)GalNAc", "how_it_was_run": "as §1"}, "[18]": {"target": "Neu5Ac(a2-3)Gal(b1-4)GlcNAc(b1-6)[Gal(b1-3)]GalNAc", "how_it_was_run": "as §1"}, "[19]": {"target": "Neu5Ac(a2-3)Gal(b1-4)GlcNAc(b1-6)[Neu5Ac(a2-3)Gal(b1-3)]GalNAc", "how_it_was_run": "as §1"}, "[20]": {"target": "Neu5Ac(a2-3)Gal(b1-4)GlcNAc6S", "how_it_was_run": "as §1"}, "[21]": {"target": "Neu5Ac(a2-3)Gal(b1-4)[Fuc(a1-3)]GlcNAc", "how_it_was_run": "as §1"}, "[22]": {"target": "Neu5Ac(a2-3)Gal(b1-4)[Fuc(a1-3)]GlcNAc(b1-3)Gal", "how_it_was_run": "as §1"}, "[23]": {"target": "Neu5Ac(a2-3)Gal(b1-4)[Fuc(a1-3)]GlcNAc(b1-3)Gal(b1-4)GlcNAc", "how_it_was_run": "as §1"}, "[24]": {"target": "Neu5Ac(a2-3)Gal(b1-4)[Fuc(a1-3)]GlcNAc(b1-3)Gal(b1-4)[Fuc(a1-3)]GlcNAc(b1-3)Gal(b1-4)[Fuc(a1-3)]GlcNAc", "how_it_was_run": "as §1"}, "[25]": {"target": "Neu5Ac(a2-3)Gal(b1-4)[Fuc(a1-3)]GlcNAc(b1-3)GalNAc", "how_it_was_run": "as §1"}, "[26]": {"target": "Neu5Ac(a2-3)Gal(b1-4)[Fuc(a1-3)]GlcNAc(b1-6)[Gal(b1-3)]GalNAc", "how_it_was_run": "as §1"}, "[27]": {"target": "Neu5Ac(a2-3)Gal(b1-4)[Fuc(a1-3)]GlcNAc(b1-6)[Neu5Ac(a2-3)Gal(b1-3)]GalNAc", "how_it_was_run": "as §1"}, "[28]": {"target": "Neu5Ac(a2-3)Gal(b1-4)[Fuc(a1-3)]GlcNAc6S", "how_it_was_run": "as §1"}, "[29]": {"target": "Neu5Ac(a2-3)Gal6S(b1-4)GlcNAc", "how_it_was_run": "as §1"}, "[30]": {"target": "Neu5Ac(a2-3)Gal6S(b1-4)[Fuc(a1-3)]GlcNAc", "how_it_was_run": "as §1"}, "Neu5Ac(a2-3)GalNAc": {"target": "Neu5Ac(a2-3)GalNAc", "how_it_was_run": "as §1"}, "[31]": {"target": "Neu5Ac(a2-3)GalNAc(b1-4)GlcNAc", "how_it_was_run": "as §1"}, "[32]": {"target": "Neu5Ac(a2-3)[GalNAc(b1-4)]Gal(b1-4)Glc", "how_it_was_run": "as §1"}, "[33]": {"target": "Neu5Ac(a2-3)[GalNAc(b1-4)]Gal(b1-4)GlcNAc", "how_it_was_run": "as §1"}, "[34]": {"target": "Neu5Ac(a2-3)[GalNAc(b1-4)]Gal(b1-4)GlcNAc(b1-3)GalNAc", "how_it_was_run": "as §1"}, "[35]": {"target": "Neu5Ac(a2-3)[Neu5Ac(a2-6)]GalNAc", "how_it_was_run": "as §1"}, "Neu5Ac(a2-6)Gal": {"target": "Neu5Ac(a2-6)Gal", "how_it_was_run": "as §1"}, "Neu5Ac(a2-6)Gal(b1-4)Glc": {"target": "Neu5Ac(a2-6)Gal(b1-4)Glc", "how_it_was_run": "as §1"}, "[36]": {"target": "Neu5Ac(a2-6)Gal(b1-4)GlcNAc", "how_it_was_run": "as §1"}}, "note": "This is one part of the list.", "data": [{"binder": "rAAL (Agrocybe aegerita), Q6WY08 (protein) MQGVNIYNISAGTSVDLAAPVTTGDIVTFFSSALNLNAGAGNPNNTTLNLFAENGAYLLHIAFRLQENVIIFNSRQPDGPWLVEQAVSDVANQFAGIDGKAMVTVFDHGDKYQVVINEKTVIQYTKQISGLTLSLSYNATEETSIFSTVVEAVTYTGLALEHHHHHH", "values": [{"measurement": "glycan array binding signal (z-score)", "setting": "[1]", "result": -0.05}, {"measurement": "glycan array binding signal (z-score)", "setting": "[2]", "result": -0.024}, {"measurement": "glycan array binding signal (z-score)", "setting": "[3]", "result": -0.112}, {"measurement": "glycan array binding signal (z-score)", "setting": "[4]", "result": -0.135}, {"measurement": "glycan array binding signal (z-score)", "setting": "[5]", "result": -0.142}, {"measurement": "glycan array binding signal (z-score)", "setting": "[6]", "result": -0.054}, {"measurement": "glycan array binding signal (z-score)", "setting": "[7]", "result": -0.135}, {"measurement": "glycan array binding signal (z-score)", "setting": "[8]", "result": -0.132}, {"measurement": "glycan array binding signal (z-score)", "setting": "[9]", "result": -0.112}, {"measurement": "glycan array binding signal (z-score)", "setting": "Neu5Ac(a2-3)Gal(b1-4)Glc", "result": 0.216}, {"measurement": "glycan array binding signal (z-score)", "setting": "[10]", "result": -0.128}, {"measurement": "glycan array binding signal (z-score)", "setting": "[11]", "result": -0.067}, {"measurement": "glycan array binding signal (z-score)", "setting": "[12]", "result": -0.113}, {"measurement": "glycan array binding signal (z-score)", "setting": "[13]", "result": -0.126}, {"measurement": "glycan array binding signal (z-score)", "setting": "[14]", "result": -0.113}, {"measurement": "glycan array binding signal (z-score)", "setting": "[15]", "result": -0.126}, {"measurement": "glycan array binding signal (z-score)", "setting": "[16]", "result": -0.14}, {"measurement": "glycan array binding signal (z-score)", "setting": "[17]", "result": -0.135}, {"measurement": "glycan array binding signal (z-score)", "setting": "[18]", "result": -0.134}, {"measurement": "glycan array binding signal (z-score)", "setting": "[19]", "result": -0.045}, {"measurement": "glycan array binding signal (z-score)", "setting": "[20]", "result": -0.133}, {"measurement": "glycan array binding signal (z-score)", "setting": "[21]", "result": -0.134}, {"measurement": "glycan array binding signal (z-score)", "setting": "[22]", "result": -0.154}, {"measurement": "glycan array binding signal (z-score)", "setting": "[23]", "result": -0.105}, {"measurement": "glycan array binding signal (z-score)", "setting": "[24]", "result": -0.146}, {"measurement": "glycan array binding signal (z-score)", "setting": "[25]", "result": -0.096}, {"measurement": "glycan array binding signal (z-score)", "setting": "[26]", "result": -0.097}, {"measurement": "glycan array binding signal (z-score)", "setting": "[27]", "result": -0.135}, {"measurement": "glycan array binding signal (z-score)", "setting": "[28]", "result": -0.136}, {"measurement": "glycan array binding signal (z-score)", "setting": "[29]", "result": -0.139}, {"measurement": "glycan array binding signal (z-score)", "setting": "[30]", "result": -0.133}, {"measurement": "glycan array binding signal (z-score)", "setting": "Neu5Ac(a2-3)GalNAc", "result": -0.131}, {"measurement": "glycan array binding signal (z-score)", "setting": "[31]", "result": -0.127}, {"measurement": "glycan array binding signal (z-score)", "setting": "[32]", "result": -0.125}, {"measurement": "glycan array binding signal (z-score)", "setting": "[33]", "result": -0.14}, {"measurement": "glycan array binding signal (z-score)", "setting": "[34]", "result": -0.14}, {"measurement": "glycan array binding signal (z-score)", "setting": "[35]", "result": -0.136}, {"measurement": "glycan array binding signal (z-score)", "setting": "Neu5Ac(a2-6)Gal", "result": -0.121}, {"measurement": "glycan array binding signal (z-score)", "setting": "Neu5Ac(a2-6)Gal(b1-4)Glc", "result": -0.008}, {"measurement": "glycan array binding signal (z-score)", "setting": "[36]", "result": -0.129}]}]}
